Reference: PubChem BioAssay AID1460 (National Center for Advancing Translational Sciences (NCATS), 2008)
In all, about 270,000 compounds went through this assay and about 5,800 (2.1%) were called active. This list was built around the results that the source calls inconclusive (neither active nor inactive); the mix of calls is not that of the screen. Calls follow the shape of the dose curve; as a rule, active = well fitted inhibition curve with a large enough effect; inconclusive = small, poorly fitted or top-dose-only effect; inactive = flat fitted curve, though single readings scatter. A potency beside an inconclusive call is a rough fit, not a confirmed value.

Target: Microtubule-associated protein tau (Homo sapiens) (UniProt P10636)
Chain of UniProt P10636 (P10636 whole entry, looked up): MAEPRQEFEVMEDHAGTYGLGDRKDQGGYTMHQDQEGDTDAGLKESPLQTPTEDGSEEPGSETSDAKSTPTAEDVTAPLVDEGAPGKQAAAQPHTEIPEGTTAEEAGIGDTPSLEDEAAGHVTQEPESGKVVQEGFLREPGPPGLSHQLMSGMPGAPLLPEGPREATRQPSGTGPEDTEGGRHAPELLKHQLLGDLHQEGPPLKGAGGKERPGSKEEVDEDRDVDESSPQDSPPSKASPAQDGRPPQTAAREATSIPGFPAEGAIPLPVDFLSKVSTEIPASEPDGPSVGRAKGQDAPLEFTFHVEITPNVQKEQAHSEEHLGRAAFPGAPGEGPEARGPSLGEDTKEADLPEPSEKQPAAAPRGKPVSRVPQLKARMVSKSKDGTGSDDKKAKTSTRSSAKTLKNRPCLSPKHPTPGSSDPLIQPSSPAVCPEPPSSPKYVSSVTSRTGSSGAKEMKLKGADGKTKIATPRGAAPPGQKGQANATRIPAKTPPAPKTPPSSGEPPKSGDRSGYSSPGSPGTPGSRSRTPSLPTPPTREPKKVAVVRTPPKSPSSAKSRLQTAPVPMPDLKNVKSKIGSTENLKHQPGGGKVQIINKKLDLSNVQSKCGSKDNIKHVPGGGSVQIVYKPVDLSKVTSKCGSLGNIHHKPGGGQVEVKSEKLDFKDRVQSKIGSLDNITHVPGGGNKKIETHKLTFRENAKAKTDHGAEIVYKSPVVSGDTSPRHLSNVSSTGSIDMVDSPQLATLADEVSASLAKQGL
Experiment: qHTS for Inhibitors of Tau Fibril Formation, Thioflavin T Binding; also: nearly all actives have a fitted effect of over 55% in size
Details: recombinant tau K18 P301L (four-repeat tau fragment), heparin-induced fibrillization, ThT fluorescence; series mostly up to 57.4 µM
Summary of the method: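 Tau K18 P301L fragment (15 uM unlabeled plus 0.24 uM Alexa 594-labeled) in 100 mM sodium acetate pH 7 with compound, fibrillization induced by 20 uM heparin for 6 hr at 37 C. Thioflavin T (30 uM) added, fluorescence read after 1 hr (ex 450, em 510 nm).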
Potency is read from the fitted curve at half-maximal effect; tags tell the direction and shape of the fitted curve.

| Compound | Potency |
| --- | --- |
| O=C(COC(=O)c1cccc(S(=O)(=O)N2CCN(c3ccccc3)CC2)c1)NCc1ccco1 | inactive |
| CCOc1ccc(CC(=O)NCC(c2cccs2)S(=O)(=O)c2ccc(F)c(C)c2)cc1 (stereo unspecified) | inactive |
| COc1ccc(NC(=O)CSc2nnc(-c3cccs3)n2Cc2ccco2)cc1OC | inconclusive: 20 µM [inhibitor, partial curve] |
| Cc1snc(S(=O)(=O)/C(C#N)=N/Nc2cccc(C(F)(F)F)c2)c1C#N | inconclusive: 39.8 µM [inhibitor, single point] |
| CCN1CCN(c2ccc([N+](=O)[O-])cc2C(=O)c2ccc(Cl)cc2)CC1 | inactive |
| O=C(NNC(=S)Nc1ccc(Cl)cc1)c1ccccc1OC(F)F | inconclusive: 11.2 µM [inhibitor, partial curve] |
| Cc1ccc[n+](-c2nc([O-])sc2/C=N/Nc2ccc([N+](=O)[O-])cc2)c1 | active: 14.1 µM |
| O=C(CSc1nc(-c2ccc(F)cc2)[nH]c1-c1ccc(F)cc1)Nc1ccc2c(c1)OCCO2 | inconclusive: 22.4 µM [inhibitor, single point] |
| O=C(c1ccccc1)c1nn(-c2ccc(Cl)cc2)c(=O)cc1C(F)(F)F | inconclusive: 28.2 µM [inhibitor, single point] |
| O=C(NCCc1nc2ccccc2[nH]1)c1cc([N+](=O)[O-])cc([N+](=O)[O-])c1 | inconclusive: 31.6 µM [inhibitor, single point] |
| Nc1cc(N2CCCCC2)c(Cl)cc1[N+](=O)[O-] | active: 12.6 µM |
| COc1ccccc1N1CCN(C(=O)c2cc3c(=O)n(C)c4ccccc4c3n2C)CC1 | inconclusive: 35.5 µM [inhibitor, partial curve] |
| CCOC(=O)C1CCCN(c2c(NCC3CCCO3)c(=O)c2=O)C1 (stereo unspecified) | inactive |
| COc1ccc(N2CCN(C(=O)CCc3c(C)nc4cc(-c5ccc(OC)cc5OC)nn4c3C)CC2)cc1 | inconclusive: 17.8 µM [inhibitor, partial curve] |
| COc1cc(/C=C2/C(=N)N3C=CSC3=NC2=O)ccc1OCCOc1ccc(NC(C)=O)cc1 | inconclusive: 7.94 µM [inhibitor, partial curve] |
| O=C(CSc1nnnn1-c1ccccc1)Nc1ccc(Cl)cn1 | inactive |
| NC1=NCC(O)=C1c1nc2ccccc2[nH]1 | inconclusive: 14.1 µM [inhibitor, partial curve, poor fit] |
| Cc1ccc(/C=N/NC(=O)C(NC(=O)c2ccccc2)c2n[nH]c(=O)c3ccccc23)cc1 (stereo unspecified) | inconclusive: 15.8 µM [inhibitor, partial curve] |
| COc1ccc(S(=O)(=O)NCC(c2ccc(N(C)C)cc2)N2CCc3ccccc32)cc1OC (stereo unspecified) | inconclusive: 22.4 µM [inhibitor, partial curve] |
| CCn1c(SCC(=O)c2ccc(F)cc2)nnc1-c1ccoc1C | inconclusive: 22.4 µM [inhibitor, partial curve] |
| COc1ccc(NC(=O)c2cc(-c3cccc(OC)c3)on2)cc1 | inconclusive: 0.199 µM [inhibitor, full curve] |
| C/C(=N\O)c1cc(Cl)cc(Cl)c1O | inactive |

| Compound | Potency |
| --- | --- |
| COc1cccc(C(=O)Nc2ccc3oc(-c4cccc5c(Br)cccc45)nc3c2)c1 | inconclusive: 2.82 µM [inhibitor, single point] |
| Cc1ccc(Nc2nnc(-c3ccc(C)c(S(N)(=O)=O)c3)c3ccccc23)cc1 | inactive |
| Cc1cc(C)n(-c2nc(NCC(C)O)c3c4c(sc3n2)CCCC4)n1 (stereo unspecified) | inconclusive: 17.8 µM [inhibitor, partial curve] |
| O=C(Nc1ccc2oc(-c3cccnc3)nc2c1)c1ccc2c(c1)OCCO2 | inconclusive: 0.794 µM [inhibitor, partial curve] |
| CC1CCN(c2ccc(NC(=O)c3cccnc3)cc2)CC1 | inconclusive: 11.2 µM [inhibitor, partial curve] |
| Cc1nc(NCc2ccc3c(c2)OCO3)c2oc3ccccc3c2n1 | inconclusive: 44.7 µM [inhibitor, single point] |
| O=C(O)c1cnn2c(C(F)F)cc(C3CC3)nc12 | inconclusive: 39.8 µM [inhibitor, single point] |
| O=C(CSc1ccccn1)N1CCc2ccccc21 | inconclusive: 22.4 µM [inhibitor, single point] |
| C=CCN1C(=O)NC(c2ccccc2)(C(F)(F)F)S/C1=C(\C#N)c1nnc(N2CCOCC2)n1-c1ccccc1 (stereo unspecified) | inconclusive: 20 µM [inhibitor, partial curve] |
| COc1cc(NC(=O)c2ccc([N+](=O)[O-])cc2)ccc1NC(=O)C(C)C | inconclusive: 3.16 µM [inhibitor, full curve, poor fit] |
| COC(=O)CNC(=O)C(C)NC(=O)OCc1ccccc1 (stereo unspecified) | inactive |
| CC(=O)OCC(=O)[C@]1(O)C(OC(C)=O)CC2C3CCC4=CC(=O)C=C[C@@]4(C)[C@]3(F)C(O)C[C@]21C (stereo partly specified) | inactive |
| Cc1cccc(Cn2c(SCCN3CCCCC3)nc3c2c(=O)[nH]c(=O)n3C)c1 | inactive |
| COC(=O)c1ccc(OS(=O)(=O)c2ccc(NC(C)=O)cc2)cc1 | inactive |
| COc1cc(NC(=S)Nc2ccccn2)cc(OC)c1OC | inactive |
| O=C(Nc1ccc(-c2csc(Nc3ccc(Cl)cc3)n2)cc1)c1cc([N+](=O)[O-])cc(C(F)(F)F)c1 | inconclusive: 10 µM [inhibitor, partial curve] |
| CC1CCN(CCC(=O)N/N=C/c2ccc([N+](=O)[O-])cc2)CC1 | inconclusive: 2.82 µM [inhibitor, full curve, poor fit] |
| CCOc1cc(Br)c(Br)c(C=Nc2ccc(NC(C)=O)cc2)c1O | active: 6.31 µM |
| CSCCC1NC(=O)N(CC(=O)Nc2ccc(-c3ccccc3)cc2)C1=O (stereo unspecified) | inconclusive: 0.355 µM [inhibitor, full curve, poor fit] |
| CCc1ccc(NC(=O)C(C)OC(=O)c2ccc(N3CCCC3)c([N+](=O)[O-])c2)cc1 (stereo unspecified) | inconclusive: 11.2 µM [inhibitor, partial curve] |
| C=CCNC(=S)Nc1sc2c(c1C(N)=O)CCCC2 | inactive |
| Cc1ccc(-c2nnc(Nc3ccc4c(c3)OCO4)c3ccccc23)cc1S(N)(=O)=O | inconclusive: 20 µM [inhibitor, partial curve] |

| Compound | Potency |
| --- | --- |
| COc1ccc(Nc2c(-c3ccc(C)o3)nc3cc(C)ccn23)cc1 | inconclusive: 25.1 µM [inhibitor, single point] |
| Cn1c(=O)n(C)c2cc(/C=N/NC(=O)c3cc4cc(Br)ccc4o3)ccc21 | inconclusive: 39.8 µM [activator, single point] |
| Cc1cccc(-n2cc(-c3ccccc3)c3c(=O)[nH]cnc32)c1 | inconclusive: 39.8 µM [inhibitor, single point] |
| O=C(O)c1cccc(N2C(=O)/C(=C/c3ccc([N+](=O)[O-])cc3)C=C2c2ccccc2)c1 | active: 6.31 µM |
| CC1(C)OC(=O)C(=NNc2ccc(O)cc2)C(=O)O1 | inconclusive: 31.6 µM [inhibitor, partial curve] |
| O=C(CCCc1c[nH]c2ccccc12)Nc1ccc(S(=O)(=O)Nc2ncccn2)cc1 | inconclusive: 28.2 µM [inhibitor, partial curve, poor fit] |
| N#Cc1c(N)n(CCOC(=O)c2ccc(Cl)cc2)c2nc3ccccc3nc12 | inconclusive: 4.47 µM [inhibitor, partial curve] |
| COc1ccc(NC(=O)COC(=O)c2cc(OC)c(OC)cc2NC(=O)c2ccco2)cc1OC | inconclusive: 5.01 µM [inhibitor, full curve] |
| Cc1cc(Br)ccc1NC(=O)c1sc2nc3n(c(=O)c2c1C)CCCC3 | inactive |
| COc1cc(C(=S)N2CCOCC2)cc(OC)c1OS(=O)(=O)c1ccc(NC(C)=O)cc1 | inactive |
| NC(=O)c1c(NC(=O)c2cc3ccccc3o2)sc2c1CCC2 | inconclusive: 0.794 µM [inhibitor, full curve] |
| O=C(CCCCCn1c(=O)c2sccc2n(Cc2ccc(Cl)cc2)c1=O)NCc1ccc2c(c1)OCO2 | inactive |
| CCOc1ccc(-n2c(=O)c3ccccc3c3ccccc3c2=O)cc1 | inconclusive: 39.8 µM [inhibitor, single point] |
| COc1ccc(O[C@H]2C=C[C@@H](c3ccccc3)O[C@@H]2COC(=O)CC/C(C)=N/O[C@@H](C)c2cn([C@H](CO)Cc3ccccc3)nn2)cc1 | inconclusive: 15.8 µM [inhibitor, partial curve] |
| Cc1ccc(S(=O)(=O)N(CC(=O)NCCSc2ccc(Cl)cc2)c2ccccc2C)cc1 | inactive |
| CCOC(=O)COc1ccc2ccccc2c1/C=C/[N+](=O)[O-] | inconclusive: 8.91 µM [inhibitor, partial curve] |
| CCCCNC(=S)N/N=C1\C(=O)c2cccc3cccc1c23 | inactive |
| COC(=O)c1sccc1NC(=O)c1cc(-c2cccc(C)c2)nc2ccccc12 | inactive |
| COc1ccc2c(c1)c(=O)c(C(=O)c1ccc(F)cc1)cn2CC(=O)Nc1ccc2c(c1)OCO2 | inconclusive: 15.8 µM [inhibitor, partial curve, poor fit] |
| COC(=O)c1c(N2C(=O)[C@H]3[C@@H](C2=O)[C@]2(C(=O)Nc4c2ccc(C)c4C)N2CCC[C@@H]32)sc(C)c1C | inconclusive: 25.1 µM [inhibitor, single point] |
| CCc1nnc(NC(=O)c2nc(SCc3ccccc3F)ncc2Cl)s1 | inconclusive: 22.4 µM [inhibitor, single point] |
| COc1cc(C(=O)ON=C2C=C(C)C(=O)C(C)=C2)cc(OC)c1OC | inconclusive: 14.1 µM [inhibitor, partial curve] |
